Patent US7517874B2 (priority 2007, dated 2009)

Biological target: human CB2 receptor (hCB2) (Homo sapiens, UniProt P34972)
Experiment: cell-based
Type: cell-based
Conditions: for +/− HCB2: agonist or inverse agonist at hCB2

Chain of human CB2 receptor (hCB2) (P34972 whole entry): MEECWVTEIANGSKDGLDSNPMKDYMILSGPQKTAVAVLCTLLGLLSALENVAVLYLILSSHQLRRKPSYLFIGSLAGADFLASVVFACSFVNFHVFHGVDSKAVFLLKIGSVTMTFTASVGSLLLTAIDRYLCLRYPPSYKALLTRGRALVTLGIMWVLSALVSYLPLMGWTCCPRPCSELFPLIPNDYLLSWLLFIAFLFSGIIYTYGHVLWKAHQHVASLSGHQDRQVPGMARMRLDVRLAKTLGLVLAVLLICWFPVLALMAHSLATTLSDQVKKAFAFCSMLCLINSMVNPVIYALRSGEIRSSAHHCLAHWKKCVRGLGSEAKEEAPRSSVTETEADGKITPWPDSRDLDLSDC

## CNC(=O)[C@@H](NC(=O)c1nc(-c2cccc3cccnc23)n2c1CN(C)CC2)C(C)(C)C [Compound 242, (S)-N-(3,3-dimethyl-1-(methylamino)-1-oxobutan-2-yl)-7-methyl-3-(quinolin-8-yl)-5,6,7,8-tetrahydroimidazo[1,5-a]pyrazine-1-carboxamide]
  EC50: > 10 µM

## CNC(=O)[C@@H](NC(=O)c1nc(-c2ccccc2)n2c1CN(S(C)(=O)=O)CC2)C(C)(C)C [Compound 92, (S)-N-(3,3-dimethyl-1-(methylamino)-1-oxobutan-2-yl)-7-(methylsulfonyl)-3-phenyl-5,6,7,8-tetrahydroimidazo[1,5-a]pyrazine-1-carboxamide]
  +/− HCB2: +

## CNC(=O)[C@@H](NC(=O)c1nc(-c2ccc(S(=O)(=O)N(C)C)cc2)n2c1CN(C)CCC2)C(C)(C)C [Compound 410, (S)-N-(3,3-dimethyl-1-(methylamino)-1-oxobutan-2-yl)-3-(4-(N,N-dimethylsulfamoyl)phenyl)-8-methyl-6,7,8,9-tetrahydro-5H-imidazo[1,5-a][1,4]diazepine-1-carboxamide]
  EC50: > 10 µM

## CNC(=O)[C@@H](NC(=O)c1nc(C2CCCCC2)n2c1CN(C)CC2)C(C)(C)C [Compound 305, (S)-3-cyclohexyl-N-(3,3-dimethyl-1-(methylamino)-1-oxobutan-2-yl)-7-methyl-5,6,7,8-tetrahydroimidazo[1,5-a]pyrazine-1-carboxamide]
  +/− HCB2: +

## CN1CCCn2c(-c3cc(F)c(F)cc3F)nc(C(=O)N[C@@H](CC(C)(C)C)C(N)=O)c2C1 [Compound 590, (S)-N-(1-amino-4,4-dimethyl-1-oxopentan-2-yl)-8-methyl-3-(2,4,5-trifluorophenyl)-6,7,8,9-tetrahydro-5H-imidazo[1,5-a][1,4]diazepine-1-carboxamide]
  +/− HCB2: +

## CNC(=O)[C@@H](NC(=O)c1nc(-c2ccccc2)n2c1CN(S(=O)(=O)c1ccccc1)CC2)C(C)(C)C [Compound 96, (S)-N-(3,3-dimethyl-1-(methylamino)-1-oxobutan-2-yl)-3-phenyl-7-(phenylsulfonyl)-5,6,7,8-tetrahydroimidazo[1,5-a]pyrazine-1-carboxamide]
  +/− HCB2: −

## CC(C)CCNC(=O)c1nc(-c2ccc(Cl)cc2)n2c1CN(C(=O)OC(C)(C)C)CC2 [Compound 33, tert-butyl 3-(4-chlorophenyl)-1-(isopentylcarbamoyl)-5,6-dihydroimidazo[1,5-a]pyrazine-7(8H)-carboxylate]
  +/− HCB2: −

## CNC(=O)[C@@H](NC(=O)c1nc(-c2ccc(Cl)cc2)n2c1CN(C)CC2)C(C)(C)C [Compound 49, (S)-3-(4-chlorophenyl)-N-(3,3-dimethyl-1-(methylamino)-1-oxobutan-2-yl)-7-methyl-5,6,7,8-tetrahydroimidazo[1,5-a]pyrazine-1-carboxamide]
  +/− HCB2: +

## CCN1CCn2c(-c3ccccc3)nc(C(=O)N[C@H](C(=O)NC)C(C)(C)C)c2C1 [Compound 149, (S)-N-(3,3-dimethyl-1-(methyalmino)-1-oxobutan-2-yl)-7-ethyl-3-phenyl-5,6,7,8-tetrahydroimidazo[1,5-a]pyrazine-1-carboxamide]
  +/− HCB2: +

## CNC(=O)[C@@H](NC(=O)c1nc(-c2ccc(C(F)(F)F)cc2F)n2c1CN(C)CCC2)C(C)(C)C [Compound 368, (S)-N-(3,3-dimethyl-1-(methylamino)-1-oxobutan-2-yl)-3-(2-fluoro-4-(trifluoromethyl)phenyl)-8-methyl-6,7,8,9-tetrahydro-5H-imidazo[1,5-a][1,4]diazepine-1-carboxamide]
  +/− HCB2: +

## CNC(=O)[C@@H](NC(=O)c1nc(C2CCCCCC2)n2c1CN(C)CCC2)C(C)(C)C [Compound 498, (S)-3-cycloheptyl-N-(3,3-dimethyl-1-(methylamino)-1-oxobutan-2-yl)-8-methyl-6,7,8,9-tetrahydro-5H-imidazo[1,5-a][1,4]diazepine-1-carboxamide]
  +/− HCB2: +

## Cc1ccc(-c2nc(C(=O)N[C@H](c3nc(C)no3)C(C)(C)C)c3n2CCCN(C(C)C)C3)c(F)c1 [Compound 523, (S)-N-(2,2-dimethyl-1-(3-methyl-1,2,4-oxadiazol-5-yl)propyl)-3-(2-fluoro-4-methylphenyl)-8-isopropyl-6,7,8,9-tetrahydro-5H-imidazo[1,5-a][1,4]diazepine-1-carboxamide]
  EC50: > 10 µM

## CNC(=O)[C@@H](NC(=O)c1nc(CCCN2CCOCC2)n2c1CN(C)CC2)C(C)(C)C [Compound 309, (S)-N-(3,3-dimethyl-1-(methylamino)-1-oxobutan-2-yl)-7-methyl-3-(3-morpholinopropyl)-5,6,7,8-tetrahydroimidazo[1,5-a]pyrazine-1-carboxamide]
  EC50: > 10 µM

## CNC(=O)[C@@H](NC(=O)c1nc(-c2cccc(C(=O)N(C)C)c2)n2c1CN(C)CCC2)C(C)(C)C [Compound 412, (S)-N-(3,3-dimethyl-1-(methylamino)-1-oxobutan-2-yl)-3-(3-(dimethylcarbamoyl)phenyl)-8-methyl-6,7,8,9-tetrahydro-5H-imidazo[1,5-a][1,4]diazepine-1-carboxamide]
  EC50: > 10 µM

## C[C@@H](NC(=O)c1nc(-c2ccccc2)n2c1CN(C(=O)OC(C)(C)C)CC2)C1CCCCC1 [Compound 37, (R)-tert-butyl 1-(1-cyclohexylethylcarbamoyl)-3-phenyl-5,6-dihydroimidazo[1,5-a]pyrazine-7(8H)-carboxylate]
  +/− HCB2: −

## CN1CCCn2c(-c3ccc(Cl)cc3F)nc(C(=O)N[C@H](C(N)=O)C(C)(C)C)c2C1 [Compound 573, (S)-N-(1-amino-3,3-dimethyl-1-oxobutan-2-yl)-3-(4-chloro-2-fluorophenyl)-8-methyl-6,7,8,9-tetrahydro-5H-imidazo[1,5-a][1,4]diazepine-1-carboxamide]
  +/− HCB2: +

## CCS(=O)(=O)N1CCn2c(-c3ccccc3)nc(C(=O)NC3C4(C)CCC(C4)C3(C)C)c2C1 (stereo not shown) [Compound 112, 7-(ethylsulfonyl)-3-phenyl-N-(1,3,3-trimethylbicyclo[2.2.1]heptan-2-yl)-5,6,7,8-tetrahydroimidazo[1,5-a]pyrazine-1-carboxamide]
  +/− HCB2: +

## CNC(=O)[C@@H](NC(=O)c1nc(-c2ccccc2)n2c1CNCCC2)C(C)(C)C [Compound 314, (S)-N-(3,3-dimethyl-1-(methylamino)-1-oxobutan-2-yl)-3-phenyl-6,7,8,9-tetrahydro-5H-imidazo[1,5-a][1,4]diazepine-1-carboxamide]
  +/− HCB2: +

## CNC(=O)C(NC(=O)c1nc(-c2ccccc2)n2c1CNCCC2)C(C)(C)F (stereo not shown) [Compound 604, N-(3-fluoro-3-methyl-1-(methylamino)-1-oxobutan-2-yl)-3-phenyl-6,7,8,9-tetrahydro-5H-imidazo[1,5-a][1,4]diazepine-1-carboxamide]
  +/− HCB2: +

## CN1CCCn2c(-c3cc(F)ccc3F)nc(C(=O)N[C@H](C(N)=O)C(C)(C)C)c2C1 [Compound 575, (S)-N-(1-amino-3,3-dimethyl-1-oxobutan-2-yl)-3-(2,5-difluorophenyl)-8-methyl-6,7,8,9-tetrahydro-5H-imidazo[1,5-a][1,4]diazepine-1-carboxamide]
  +/− HCB2: +

## Cc1noc([C@@H](NC(=O)c2nc(-c3ccccc3)n3c2CN(C(=O)OC(C)(C)C)CCC3)C(C)(C)C)n1 [Compound 517, (S)-tert-butyl 1-(2,2-dimethyl-1-(3-methyl-1,2,4-oxadiazol-5-yl)propylcarbamoyl)-3-phenyl-6,7-dihydro-5H-imidazo[1,5-a][1,4]diazepine-8(9H)-carboxylate]
  +/− HCB2: −

## C=C(c1ccccc1)c1nc(C(=O)N[C@H](C(=O)NC)C(C)(C)C)c2n1CCCN(C)C2 [Compound 455, (S)-N-(3,3-dimethyl-1-(methylamino)-1-oxobutan-2-yl)-8-methyl-3-(1-phenylvinyl)-6,7,8,9-tetrahydro-5H-imidazo[1,5-a][1,4]diazepine-1-carboxamide]
  +/− HCB2: +

## CNC(=O)[C@@H](NC(=O)c1nc(-c2cc(F)c(F)c(F)c2)n2c1CN(C)CCC2)C(C)(C)C [Compound 375, (S)-N-(3,3-dimethyl-1-(methylamino)-1-oxobutan-2-yl)-8-methyl-3-(3,4,5-trifluorophenyl)-6,7,8,9-tetrahydro-5H-imidazo[1,5-a][1,4]diazepine-1-carboxamide]
  +/− HCB2: +

## CNC(=O)[C@@H](NC(=O)c1nc(C2=CCOCC2)n2c1CN(C)CCC2)C(C)(C)C [Compound 594, (S)-3-(3,6-dihydro-2H-pyran-4-yl)-N-(3,3-dimethyl-1-(methylamino)-1-oxobutan-2-yl)-8-methyl-6,7,8,9-tetrahydro-5H-imidazo[1,5-a][1,4]diazepine-1-carboxamide]
  +/− HCB2: +

## CNC(=O)[C@@H](NC(=O)c1nc(-c2ccsc2)n2c1CN(Cc1cncnc1)CC2)C(C)(C)C [Compound 76, (S)-N-(3,3-dimethyl-1-(methylamino)-1-oxobutan-2-yl)-7-(pyrimidin-5-ylmethyl)-3-(thiophen-3-yl)-5,6,7,8-tetrahydroimidazo[1,5-a]pyrazine-1-carboxamide]
  +/− HCB2: +

## COC(=O)[C@@H](NC(=O)c1nc(-c2ccccc2)n2c1CNCCC2)C(C)(C)C [Compound 465, (S)-methyl 3,3-dimethyl-2-(3-phenyl-6,7,8,9-tetrahydro-5H-imidazo[1,5-a][1,4]diazepine-1-carboxamido)butanoate]
  +/− HCB2: +

## CNC(=O)[C@@H](NC(=O)c1nc(-c2ccc(Br)cc2F)n2c1CN(C)CCC2)C(C)(C)C [Compound 600, (S)-3-(4-bromo-2-fluorophenyl)-N-(3,3-dimethyl-1-(methylamino)-1-oxobutan-2-yl)-8-methyl-6,7,8,9-tetrahydro-5H-imidazo[1,5-a][1,4]diazepine-1-carboxamide]
  +/− HCB2: +

## CNC(=O)[C@@H](NC(=O)c1nc(Cc2ccccc2)n2c1CN(C)CCC2)C(C)(C)C [Compound 459, (S)-3-benzyl-N-(3,3-dimethyl-1-(methylamino)-1-oxobutan-2-yl)-8-methyl-6,7,8,9-tetrahydro-5H-imidazo[1,5-a][1,4]diazepine-1-carboxamide]
  +/− HCB2: +
